Patent US20230416360A1

Tests used:
[1] = molecular target: T1, murine CD22-ECD-His (mouse) (UniProt P35329); assay: ELISA, coated mouse CD22, antibody 0.10 nM
T1 sequence (looked up): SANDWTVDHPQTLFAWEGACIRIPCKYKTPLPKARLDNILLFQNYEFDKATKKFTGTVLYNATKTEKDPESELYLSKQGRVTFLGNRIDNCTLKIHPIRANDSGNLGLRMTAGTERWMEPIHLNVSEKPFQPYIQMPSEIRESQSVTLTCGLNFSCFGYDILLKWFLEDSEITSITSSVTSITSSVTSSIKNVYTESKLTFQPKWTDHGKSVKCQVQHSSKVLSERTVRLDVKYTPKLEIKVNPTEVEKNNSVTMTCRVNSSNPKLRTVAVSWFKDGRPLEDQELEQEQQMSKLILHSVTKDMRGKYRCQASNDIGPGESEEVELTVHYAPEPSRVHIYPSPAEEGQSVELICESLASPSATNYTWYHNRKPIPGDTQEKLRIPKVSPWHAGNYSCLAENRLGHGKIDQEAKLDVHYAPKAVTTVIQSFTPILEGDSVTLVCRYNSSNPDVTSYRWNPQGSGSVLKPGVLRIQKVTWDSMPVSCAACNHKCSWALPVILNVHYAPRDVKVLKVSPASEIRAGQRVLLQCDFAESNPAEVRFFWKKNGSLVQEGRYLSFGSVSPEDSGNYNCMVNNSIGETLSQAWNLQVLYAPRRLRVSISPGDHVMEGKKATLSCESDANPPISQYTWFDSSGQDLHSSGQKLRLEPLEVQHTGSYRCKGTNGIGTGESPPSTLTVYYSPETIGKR

[2] = molecular target: T1, murine CD22-ECD-His (mouse); assay: ELISA, coated mouse CD22, antibody 0.0001 nM
[3] = molecular target: T1, murine CD22-ECD-His (mouse); assay: ELISA, coated mouse CD22, antibody 0.001 nM
[4] = molecular target: T1, murine CD22-ECD-His (mouse); assay: ELISA, coated mouse CD22, antibody 10 nM
[5] = molecular target: T1, murine CD22-ECD-His (mouse); assay: ELISA, coated mouse CD22, antibody 100 nM
[6] = molecular target: T1, murine CD22-ECD-His (mouse); assay: ELISA, coated mouse CD22, antibody 0.00001 nM
[7] = molecular target: T1, murine CD22-ECD-His (mouse); assay: ELISA, coated mouse CD22, antibody 0.01 nM

B1: S002-NB151-13 VHH-Fc (Fc fusion)
chain: QVQLVESGGGLVQAGDSLRLSCAASTRIFRSYVMGWFRQAPGKEREAVASIRWSNDTGTYADSVKGRFTISRDNAKNTVYLQMNSLKPEDTAVYSCAADSPPWGRTWYTGYDYWGQGTQVTVSS[human IgG1 Fc with changes cut from this listing]
[1]
  OD450: 0.06
[2]
  OD450: 0.06
[3]
  OD450: 0.06
[4]
  OD450: 0.11
[5]
  OD450: 0.38
[6]
  OD450: 0.06
[7]
  OD450: 0.06
